Experimental data reported in PubChem BioAssay AID651820 (National Center for Advancing Translational Sciences (NCATS), 2012).
Among all 340,000 compounds or so, about 12,000 (3.5%) were called active. This list was built around the results that the source calls inconclusive (neither active nor inactive); the mix of calls is not that of the screen. The call rests on the fitted dose curve; in most records, active means well fitted inhibition curve with a large enough effect; inconclusive means small, poorly fitted or top-dose-only effect, or another doubt; inactive means no such curve, though single readings can be large or run the other way. Potencies of inconclusive entries are left out as doubtful fits.

Experiment: qHTS Assay for Inhibitors of Hepatitis C Virus (HCV)
Details: Huh7.5.1 HCVcc-Cre (HCVcc is cell-culture hepatitis C virus) infection, luciferase reporter, 44 h; activity change, negative = inhibition: at 41.8 µM (top of the series) unless noted
How it was run: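 Cells seeded at 1,000/well and cultured 4 h, then compounds added followed by HCVcc-Cre virus (~0.5 moi). After 44 h further culture, luciferase substrate was added, plates held 15 min at room temperature, and luminescence read for 15 sec.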
On the % scale 0 is the no-effect control and ±100 the full control effect; potency means the concentration at half of the fitted maximal effect; tags describe the fitted curve by direction and shape.

Structure (SMILES)	activity change, negative = inhibition	Potency
CC(OC(=O)c1nn(C)c(=O)c2ccccc12)C(=O)Nc1ccc(S(N)(=O)=O)cc1 (stereo not drawn)	inactive: -8.81%	
COc1ccccc1CNC(=O)CN1C(=O)NC2(CCCc3ccccc32)C1=O (stereo not drawn)		inconclusive [inhibitor, partial curve, poor fit]
CSc1ncc(Cl)c(C(=O)Nc2nnc(SC/C=C/c3ccccc3)s2)n1		inconclusive [inhibitor, single point]
Cc1cccn2c(=O)nc(SCC(=O)N3CCN(c4ccccc4)CC3)nc12		inconclusive [inhibitor, single point]
O=c1c2ccccc2nc(/C=C/c2ccc(Br)cc2)n1CCCO		inconclusive [inhibitor, single point]
CCOC(=O)c1c(C)nc2sc3c(c2c1-c1ccc(OC)cc1)NC(c1ccccc1)NC3=O (stereo not drawn)		inconclusive [inhibitor, single point]
CCc1ccc(OCC(=O)NC(=S)Nc2ccc(C)cc2C)c(Br)c1		inconclusive [inhibitor, full curve]
COc1cccc(NC(=O)CSc2nnnn2C2CCCC2)c1		inconclusive [inhibitor, single point]
Cc1ccc(-c2csc(Cc3nc(-c4cc5ccccc5oc4=O)cs3)n2)cc1		active: 5.01 µM
NCC12CC3CC(C1)CC(c1ccc(Br)cc1)(C3)C2		active: 12.6 µM
CCOC(=O)c1c(-c2ccc(OC)cc2)csc1NC(=O)CSc1ccccc1		inconclusive [inhibitor, partial curve, poor fit]
c1ccc(CC[C@@H]2CC[C@@H](CCc3ccccc3)N2)cc1		inconclusive [inhibitor, single point]
CCCC(=O)N1CCN(c2nc(CC(C)C)c3c(c2C#N)CCC3)CC1		inconclusive [inhibitor, single point]
O=C(Nc1nc2c(F)cc(F)cc2s1)C1CC1		inconclusive [inhibitor, partial curve]
CCOc1ccc2nc(NC3=NC(C)(C)C=C(C)N3)nc(C)c2c1		inconclusive [inhibitor, single point]
COc1ccc(OCC(=O)NNC(=S)NC(=O)c2ccc(Br)o2)cc1		inconclusive [inhibitor, single point]
Cc1ccc(NC(=O)COC(=O)c2csc3c2CCC(C)C3)cc1S(=O)(=O)N1CCCCC1 (stereo not drawn)		inconclusive [inhibitor, single point]
O=C(Nc1cccs1)N1CCN(c2ncccn2)CC1	inactive: 2.34%	
COc1ccccc1NS(=O)(=O)c1ccc(C)c(C(=O)Nc2cc(C)on2)c1		inconclusive [inhibitor, partial curve, poor fit]
COc1ccc(N(CC(=O)NCc2ccccc2OC)S(=O)(=O)c2ccccc2[N+](=O)[O-])c(OC)c1		inconclusive [inhibitor, single point]
Cc1cccc(C)c1Nc1nnc(SC/C(O)=C(\C#N)c2nc3ccccc3[nH]2)s1	inactive: 2.61%	
COC(=O)CCC(=O)NC(=S)Nc1cc(Cl)ccc1Cl		inconclusive [inhibitor, single point]
CNC(=O)/C(C#N)=C\c1cc(C)n(-c2ccc(N3CCOCC3)cc2)c1C	inactive: 3.41%	

Structure (SMILES)	activity change, negative = inhibition	Potency
C#CCOCCOCCOCCNc1nc(N2CCOCC2)nc(N2CCN(C(=O)[C@H](CCC(=O)O)n3cc(C(N)Cc4ccc(O)cc4)nn3)CC2)n1 (stereo partly drawn)	inactive: 6.65%	
Cc1cc2cc(C(c3nnnn3Cc3ccccc3)N3CCc4ccccc43)c(=O)[nH]c2cc1C (stereo not drawn)		inconclusive [inhibitor, single point]
CC(=O)c1ccc2c3c(ccc(O)c13)CC2		inconclusive [inhibitor, partial curve]
O=C(CCN1C(=O)/C(=C\c2cccc(Br)c2)SC1=S)NCCCN1CCOCC1		inconclusive [inhibitor, partial curve]
CS(=O)(=O)N(CC(=O)NC1CC2CCC1C2)c1ccc(Oc2ccccc2)cc1 (stereo not drawn)		inconclusive [inhibitor, partial curve]
CN(C)CCNc1ccc(CO)c2oc3ccc(O)cc3c(=O)c12		inconclusive [inhibitor, partial curve]
O=C(c1ccc(CNS(=O)(=O)c2ccccc2)cc1)N1CCN(c2ccccn2)CC1	inactive: -17.5%	
CCOC(=O)c1[nH]c2ccc(F)cc2c1NC(=O)C1=COCCO1		inconclusive [inhibitor, partial curve]
COC(=O)c1ccc2c(=O)[nH]c(COC(=O)c3[nH]c(C)c(C(C)=O)c3C)nc2c1		inconclusive [inhibitor, full curve]
COc1cc(C(=O)Oc2cccc(Nc3ncnc4ccccc34)c2)cc(OC)c1OC		active: 25.1 µM
O=C(O)c1ccc(NN=CC2=C(N3CCOCC3)/C(=C/c3ccccc3)CC2)cc1	inactive: 40.3%	
CS(=O)(=O)N1CCC(Oc2cccc(C(=O)NCCCC3CCCC3)c2)CC1		inconclusive [inhibitor, single point]
Cc1onc(-c2ccccc2Cl)c1C(=O)N(C)CC(=O)Nc1ccc(F)c(F)c1F		inconclusive [inhibitor, partial curve]
CCC(=O)N1CCN(c2ccccc2NC(=O)COc2cccc(C)c2C)CC1		inconclusive [inhibitor, single point]
COc1ccc(C(=O)c2c(C)c3cc(C)ccc3n2CC(O)CN2CCOCC2)cc1 (stereo not drawn)	inactive: -17.7%	
CCn1c(SCC(=O)N2CCC(C)CC2)nnc1-c1ccco1	inactive: 20.8%	
COc1ccc(NC2=C(Cl)C(=O)N(CCc3ccccc3)C2=O)c(OC)c1	inactive: -10.1%	
CNC(=O)c1ccc(Nc2nc(-c3ccccc3)nc3ccccc23)cc1		inconclusive [inhibitor, single point]
O=C(c1ccc2ccccc2c1)N1CCN(Cc2ccccc2)CC1	inactive: -21.4%	
CC1C(=O)N2CCCc3cc(NC(=O)C(=O)NCc4ccc5c(c4)OCO5)cc1c32 (stereo not drawn)		inconclusive [inhibitor, full curve, poor fit]
Cn1ncc(Cl)c1C(=O)N1CCN(S(=O)(=O)c2cccs2)CC1	inactive: 24.7%	
Clc1nc2sccn2c1/C=N/n1cnc2ccccc21		inconclusive [inhibitor, partial curve]
CN(Cc1ccon1)Cc1cn(Cc2ccccc2)nc1-c1ccc2c(c1)OCO2		inconclusive [inhibitor, full curve, poor fit]

Structure (SMILES)	activity change, negative = inhibition	Potency
CCOC(=O)c1ccc(Nc2cc(C)nc(-c3ccccc3O)n2)cc1		inconclusive [inhibitor, single point]
COC(=O)c1c(NC(=O)CSc2nnnn2C)sc(C)c1C		inconclusive [inhibitor, full curve]
COc1ccc(/C=C2\SC(=Nc3ccccc3OC)NC2=O)cc1		inconclusive [inhibitor, single point]
O=C(Nc1ccc2oc(-c3cccnc3)nc2c1)c1ccco1	inactive: -4.22%	
O=[N+]([O-])c1ccc(O)c(-c2cc(C(F)(F)F)nc(-c3ccccc3)n2)c1		active: 1.41 µM
CCNc1nc(NC(C)C)nc(OCCNS(=O)(=O)c2cc(C)ccc2C)n1		inconclusive [inhibitor, full curve]
O=C(c1ccccc1)c1ccc(N2CCNCC2)cc1		inconclusive [inhibitor, single point]
O=C(Nc1ccc(OC(F)(F)F)cc1)N1CCN(c2ccnc3cc(Cl)ccc23)CC1		active: 11.2 µM
CCOc1ccc(NC2c3ccccc3C(=O)N2Cc2ccc3c(c2)OCO3)cc1 (stereo not drawn)		inconclusive [inhibitor, single point]
O=C(NN=Cc1ccc(N(CCCl)CCCl)cc1)c1cccc([N+](=O)[O-])c1		inconclusive [inhibitor, full curve]
Cc1oc2c(CN3CCC(C)CC3)c(O)ccc2c(=O)c1-c1ccccc1	inactive: 4.99%	
CCOc1ccccc1-c1cc(C(=O)N/N=C/c2cccnc2)c2ccccc2n1	inactive: -17.9%	
CCc1cc2ccc(C)c(C)c2nc1SCC(=O)NNC(=O)c1ccco1		inconclusive [inhibitor, single point]
O=C(CSc1ncnc2c1cnn2-c1ccccc1)Nc1ccc2c(c1)OCO2		inconclusive [inhibitor, single point]
Cc1ccc(NS(=O)(=O)c2csc(C(N)=O)c2)cc1C		inconclusive [inhibitor, single point]
COc1cc(SC)ccc1C(=O)Nc1ccc2ncccc2c1		inconclusive [inhibitor, single point]
COc1ccc(/C(N)=N/OC(=O)Cc2ccc(OC)c(OC)c2)cc1		inconclusive [inhibitor, single point]
COc1cc(NC(=O)COC(=O)/C=C/c2ccccc2Cl)cc(OC)c1	inactive: -26.9%	
COc1ccc(C(=Cc2cc(OC)c(OC)cc2[N+](=O)[O-])C(=O)O)cc1	inactive: -20.1%	
CCN(c1ccccc1)S(=O)(=O)c1ccc(OC)c(NC(=O)Cn2cnc3c2c(=O)n(C)c(=O)n3C)c1	inactive: -28.4%	
CCCCCCCNC(=O)C1(CC2CC(c3ccccc3)=NO2)CCN(C(=O)c2ccccc2)CC1 (stereo not drawn)		inconclusive [inhibitor, single point]
CCN(C(=O)COC(=O)c1ccccc1Oc1ccccc1)c1c(N)n(Cc2ccccc2)c(=O)[nH]c1=O	inactive: 2.83%	
